According to article PMC4336329 (PLoS ONE, 2015):
Among all 310,000 compounds or so, about 14,000 (4.5%) showed an effect of 50% or more. Effects have a minus sign here. The list shows a part of the results.

What follows are compounds tested against human ether-à-go-go-related gene (hERG) potassium channel (human, UniProt Q12809) (assay: primary screen, population patch clamp on CHO cells stably expressing hERG).
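Note: peak tail current of the secondary pulse compared with the same well before compound.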

human ether-à-go-go-related gene (hERG) potassium channel, sequence (Q12809 whole entry, looked up): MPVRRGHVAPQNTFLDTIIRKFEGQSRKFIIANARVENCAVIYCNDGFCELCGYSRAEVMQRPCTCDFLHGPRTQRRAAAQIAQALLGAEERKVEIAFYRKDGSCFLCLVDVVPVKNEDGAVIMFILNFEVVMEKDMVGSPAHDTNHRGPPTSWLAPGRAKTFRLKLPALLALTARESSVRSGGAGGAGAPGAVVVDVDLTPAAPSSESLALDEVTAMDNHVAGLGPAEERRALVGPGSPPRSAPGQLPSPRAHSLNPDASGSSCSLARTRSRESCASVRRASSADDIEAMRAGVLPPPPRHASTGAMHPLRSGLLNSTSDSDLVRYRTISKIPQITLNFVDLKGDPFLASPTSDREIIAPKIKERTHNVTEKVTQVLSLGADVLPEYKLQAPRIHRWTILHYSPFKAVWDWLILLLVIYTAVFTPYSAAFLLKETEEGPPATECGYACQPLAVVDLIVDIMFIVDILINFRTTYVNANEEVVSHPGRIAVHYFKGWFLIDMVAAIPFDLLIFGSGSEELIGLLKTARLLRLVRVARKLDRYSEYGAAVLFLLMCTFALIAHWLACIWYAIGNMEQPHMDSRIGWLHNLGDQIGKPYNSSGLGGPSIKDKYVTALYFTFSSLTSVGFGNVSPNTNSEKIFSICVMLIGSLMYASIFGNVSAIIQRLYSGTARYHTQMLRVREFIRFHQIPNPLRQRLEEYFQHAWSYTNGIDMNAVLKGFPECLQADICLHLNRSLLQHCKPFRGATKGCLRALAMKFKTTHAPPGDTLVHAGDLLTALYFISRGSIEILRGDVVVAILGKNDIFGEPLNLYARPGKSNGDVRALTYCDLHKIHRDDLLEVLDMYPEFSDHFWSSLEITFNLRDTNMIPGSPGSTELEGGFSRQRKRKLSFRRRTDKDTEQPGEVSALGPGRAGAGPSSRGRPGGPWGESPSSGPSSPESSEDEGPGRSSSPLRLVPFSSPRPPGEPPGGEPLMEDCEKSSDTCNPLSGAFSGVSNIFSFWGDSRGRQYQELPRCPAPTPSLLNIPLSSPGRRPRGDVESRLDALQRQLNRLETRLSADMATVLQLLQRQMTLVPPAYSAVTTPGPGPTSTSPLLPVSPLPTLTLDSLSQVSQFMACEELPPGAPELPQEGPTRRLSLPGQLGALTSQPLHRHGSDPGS

Point of comparison: `CS(=O)(=O)c1ccc(C(=O)NC(Cc2ccccc2)c2ccccc2)cc1` (centres unmarked), “hERG current change (%, negative = inhibition) at 10uM” value 3.93%. Against it:
- Cc1sc2nc3ccc(N4CCCC4)nn3c(=O)c2c1C — lower, -17.2%
- Cn1c(=O)c2c(nc(CN3CCN(C(=O)c4ccco4)CC3)n2CCCc2ccccc2)n(C)c1=O — lower, -68.5%
- CCc1nc2ccccc2n(CCOCCOCCn2c(=O)c(CC)nc3ccccc32)c1=O — lower, -7.15%
- COCCN1C(=O)N(c2cccc(C)c2)C(=O)C1CC(=O)Nc1ccc(F)cc1 (centres unmarked) — lower, -8.92%
- O=[N+]([O-])c1ccc(O)c(/C=N/Nc2ccccc2Cl)c1 — higher, 29.8%
- CC(NC(=O)c1cccc(S(=O)(=O)N2CCN(C)CC2)c1)C1CC2CCC1C2 (centres unmarked) — lower, -20.8%
- O=C(O)c1ccc(-c2ccccc2)[nH]1 — higher, 8.17%
- CCNc1nc(NCC)nc(SCCOC(=O)Nc2ccc(Cl)cc2Cl)n1 — lower, -0.694%
- CC(CCc1ccccc1)NC(=O)C1CCN(C(=O)c2sccc2-n2cccc2)CC1 (centres unmarked) — lower, -22%
- CCCCC1=CC2=C(c3ccco3)C(=O)C(C)(OC(=O)c3ccc(OC)cc3)C(=O)C2=CN1CCCCO (centres unmarked) — higher, 5.35%
- CN1C(=O)NC(c2ccc(O)cc2)C2=C1CN(c1ccc(O)cc1)C2=O (centres unmarked) — higher, 24%
- CCOC(=O)c1ccc(NC(=O)C(=O)NCC2CCCO2)cc1 (centres unmarked) — higher, 7.84%
- COc1ccc(CNc2nc3nc4c(c(=O)n3[nH]2)CCC4)cc1 — lower, 1.21%
- O=C(CN1CCN(S(=O)(=O)c2ccc(F)cc2)CC1)Nc1ccc2c(c1)OCO2 — lower, -40.6%
- O=C1CC(C(=O)N2CCN(c3ccccc3Cl)CC2)CN1Cc1ccccc1 (centres unmarked) — lower, -37.3%
- O=C(CSc1nnc(-c2ccncc2)n1-c1ccc(Cl)cc1)N1CCOCC1 — lower, -0.456%
- CC(C)CC(=O)N1CCN(c2ccc([N+](=O)[O-])cc2Cl)CC1 — lower, -59.9%
- Cc1ccc(S(=O)(=O)CCN2CCN(c3ccccc3)CC2)cc1 — higher, 9.88%
- O=C(NCc1n[nH]c(=S)n1-c1ccccc1)c1ccc(S(=O)(=O)N2CCCCC2)cc1 — higher, 8.66%
- CSc1ccccc1NC(=O)Cn1nc([N+](=O)[O-])c(Cl)c1C — higher, 9.2%
- CC(C)n1c(O)c(N=NC(=O)CNC(=O)CCc2ccccc2)c2ccccc21 — lower, -43.1%
- Cc1ccccc1-c1noc(-c2ccccc2F)n1 — higher, 5.99%
- CCCc1nnc(NC(=O)c2cc3ccccc3o2)s1 — higher, 13.1%
- COc1cc2[nH]c(=S)nc(NCCCOC(C)C)c2cc1OC — lower, -16.6%
- CCC(C)c1cc(S(=O)(=O)N2CCOCC2)ccc1OC (centres unmarked) — lower, -12.8%
- Cc1nc2ccccc2n1C(=O)c1cc(-c2ccc(Br)cc2)nc2ccccc12 — higher, 15%
- COc1ccc(CN2CCC(N(CCc3ccccc3)Cc3ccccc3)CC2)c(OC)c1.O=C(O)C(=O)O — lower, -74.5%
- O=C(Nc1ccc2c(c1)OCO2)N1CCN(c2cccc(C(F)(F)F)c2)CC1 — lower, -1.15%
- COC(=O)NNC(=O)Cc1cccc2ccccc12 — lower, 2.94%
- COc1ccc(/C=N/NC(=O)c2cccc(Br)c2)cc1CSc1ccccn1 — lower, 2.67%
- COc1cc(C(=O)NCc2nnc(SCC(=O)N3CCC(C)CC3)o2)cc(OC)c1OC — lower, 3.18%
- O=C(COC(=O)c1cccc(S(=O)(=O)N2CCOCC2)c1)Nc1ncc(Cl)cc1Cl — lower, -13.4%
- CCC(C)N(C(=O)COC(=O)C1CCN(S(=O)(=O)c2ccc(C)c(C)c2)CC1)C1CCS(=O)(=O)C1 (centres unmarked) — lower, -33.3%
- CCc1c(C)nc(N2CCN(c3ccc(Cl)cc3)CC2)[nH]c1=O — higher, 13.4%
- COc1ccc(C(=O)NCc2cccc(Cl)c2)cc1S(=O)(=O)N1CCOCC1 — lower, -36.8%
- CCC(C)(C)c1ccc(OCCCC[n+]2cccc(C)c2C)c(C(C)(C)CC)c1.[Br-] — lower, -75.8%
- CCC(=O)N1CCc2cc(Br)cc(S(=O)(=O)CCC(=O)NCc3ccco3)c21 — lower, -12.3%
- O=C(Nc1ccc(F)cc1F)NC1CC(=O)N(Cc2ccccc2)C1 (centres unmarked) — higher, 5.99%
- C/C(=N\OCC(=O)Nc1ccc(OC(F)(F)F)cc1)c1ccc2c(c1)OCCO2 — higher, 9.94%
- CC(=O)Nc1ccc(SC[C@H](C)CN2CC[C@H](O)CCC2=O)cc1 — higher, 11.7%
- CCc1ccccc1NC(=O)c1ccc(S(=O)(=O)NCC2CCCO2)cc1 (centres unmarked) — higher, 8.85%
- Cc1ccccc1-c1nc(CN2CCC(C(=O)NCc3cccs3)CC2)c(C)o1 — lower, -70.5%
- CCC(CC)c1nnc(NC(=O)C2=NNC(=O)CC2)s1 — higher, 13.7%
- CC(=O)c1cccc(NC(=O)CCS(=O)(=O)c2cccc3nonc23)c1 — lower, -13%
- COc1cc(NC(=O)CN2c3ccccc3CC2C)cc(OC)c1OC (centres unmarked) — higher, 9.12%
- Cc1ccc(S(=O)(=O)CNC(=S)c2ccc3ccccc3c2)cc1 — lower, -4.27%
- Cc1ccc(-n2c(Cn3c(C)nc4ccccc43)n[nH]c2=S)cc1 — higher, 10%
- COc1ccc(Cl)cc1NC(=O)CN(C)C(=O)c1cc(-c2cccs2)nn1-c1ccccc1 — lower, -4.03%
- Cn1c2c(c3ccccc31)CC/C2=N\O — lower, -1.23%
- O=S(=O)(/N=C(/Sc1ccccc1)c1ccccc1)c1ccccc1 — higher, 14.2%
- Cc1noc(C)c1COC(=O)c1ccccc1NC(=O)Cc1ccccc1 — lower, -30.8%
- CC(OC(=O)c1ccccc1O)C(=O)Nc1ccc(Cl)cn1 (centres unmarked) — lower, -12.4%
- COc1ccc(-c2csc(NC(=O)CSc3n[nH]c(N)n3)n2)cc1 — higher, 7.57%
- COc1ccc(O)c(C(=O)C2c3ccccc3C(=O)N2c2ccc(C)cc2)c1 (centres unmarked) — lower, 2.06%
- Cc1ccc(/C=C/C(=O)Nc2sc3c(c2C#N)CCCC3)o1 — higher, 10.8%
- Cc1[nH]c2ccccc2c1/C=N/NC(=O)c1cccs1 — higher, 47.5%
- CCN(CCCNC(=O)c1cn(CC)c2ccc(S(=O)(=O)N(C)C)cc2c1=O)c1cccc(C)c1 — lower, -9.72%
- CCCCN1CNC(=S)N(Cc2ccccc2)C1 — lower, -0.788%
- O=C(CSc1ccc2nnc(-c3ccccc3)n2n1)NCc1ccco1 — lower, -72.2%
- Cc1ccc(C)c(N2CCN(C(=O)c3ccc(CS(=O)Cc4cccc(Cl)c4)o3)CC2)c1 (centres unmarked) — lower, -6.6%
- O=S(=O)(c1ccc(Cl)nc1)N1CCCc2ccccc21 — lower, -15.5%
- COc1cc([N+](=O)[O-])ccc1NC(=O)NCc1ccco1 — higher, 10.9%
- CC(C)CCC(O)(CCC(C)C)C(=O)NN1CCCCC1 — higher, 6.04%
- O=C(COC(=O)Cn1nnc2ccccc21)NC1CCCC1 — higher, 13.1%
- Cc1cccc(NC(=O)COc2ccc(Br)cc2)n1 — higher, 5.02%
- NC(=O)C1CCCN(S(=O)(=O)c2ccccc2)C1 (centres unmarked) — higher, 15.4%
- COc1cc2c(cc1OC)C(c1cc3cc(C)ccc3[nH]c1=O)N(C(=O)c1ccco1)CC2 (centres unmarked) — lower, -10.8%
- COc1ccccc1N(CC(=O)NC(C)(C)C)C(=O)CCC(=O)Nc1ccccn1 — higher, 14.2%
- S=c1[nH]nc(-c2cccnc2)n1Cc1ccccc1 — higher, 8.29%
- O=C(NCc1cccnc1)Nc1ccc(F)cc1F — lower, -4.58%
- COc1ccc(C(CNC(=O)c2ccco2)N2CCOCC2)cc1 (centres unmarked) — higher, 5.49%
- Cc1ccsc1CN(C(=O)c1ccccc1)C1CCS(=O)(=O)C1 (centres unmarked) — lower, 2.16%
- O=[N+]([O-])c1cc(S(=O)(=O)[O-])cc([N+](=O)[O-])c1NN(c1ccccc1)c1ccccc1.[K+] — higher, 12%
- CC(=O)NCCC(=O)Nc1cc(S(=O)(=O)N2CCOCC2)ccc1Oc1ccc(F)cc1 — lower, -30.5%
- CCn1c(O)c(C=Nc2ccccc2)sc1=S — higher, 8.74%
- CCN(CC)CCC(C)OC(c1ccccc1)c1ccccc1.O=C(O)CC(O)(CC(=O)O)C(=O)O (centres unmarked) — lower, -52.2%
- COCc1cc(C)nc2sc(C(=O)OC(C)C)c(N)c12 — lower, -22.3%
- CC(C)(C)OC(=O)CNC(=O)c1[nH]cnc1C(=O)NC(c1ccccc1)c1ccccc1 — lower, -21.4%
- CCCOc1ccc(-c2cc(C(=O)NCC3CCCO3)c3ccccc3n2)cc1 (centres unmarked) — lower, -13.8%
- CN(Cc1ccccc1)C(=O)Cn1c(=O)c2cccn2c2cccnc21 — lower, -27%
- NC(=O)c1ccsc1NC(=O)CSc1nnc(Nc2ccccc2)s1 — higher, 12.8%
- Cc1c(NC(=O)C(C)OC(=O)[C@@H](NC(=O)c2ccccc2)C(C)C)c(=O)n(-c2ccccc2)n1C (some centres unmarked) — lower, -4.56%
- O=C(Nc1ccc(NC(=O)c2cccs2)cn1)c1ccco1 — higher, 8.01%
- O=C(Nc1ccccc1C(=O)NCc1cccnc1)c1ccccc1F — higher, 9.87%
- COC(=O)[C@H](Cc1ccccc1)NC(=O)C1CCN(C(=O)[C@H](C)NS(=O)(=O)c2ccc(C)cc2)CC1 — lower, 2.58%
